Laboratory results as given in patent US10189774B2 (priority 2006, dated 2019).

Description: 32.6 g (0.1 mol) of sodium 4-[bis(2-chloroethyl)amino]benzenebutyrate was dissolved in 100 ml of acetonitrile. 26 g (0.10 mol) of 2-Bromo-N,N-diethylethylamine.HBr in ethyl acetate was added into the reaction mixture. The mixture was stirred for 3 h at RT. Solid is removed by filtration. The solvents were evaporated off. The solid product was collected by filtration and washed with ether. After drying, it yielded 35 g of the desired product (72.3%). Hygroscopic product; Solubility in water: 300 mg/ml; Elementary analysis: C20H33BrCl2N2O2; MW: 484.30. Calculated % C, 49.60; H, 6.87; Br, 16.50; N, 5.78; O: 6.61; Cl, 14.64. Found % C, 49.52; H, 6.89; Br, 16.55; N, 5.75; O: 6.65; Cl, 14.64. ^1H-NMR (400 MHz, D2O): δ: 1.55 (t, 6H), 2.02 (m, 2H), 2.27 (m, 2H), 2.54 (m, 2H), 3.23 (m, 4H), 3.51 (m, 2H), 3.60-3.65 (m, 8H), 4.51 (m, 2H), 6.55 (m, 2H), 6.95 (m, 2H).
(A) 30.4 g (0.1 mol) of 4-[bis(2-chloroethyl)amino]benzenebutanoic acid was dissolved in 300 ml of chloroform. 20.6 g of N,N′-Dicyclohexylcarbodiimide was added into the reaction mixture. […] Calculated % C, 54.61; H, 7.56; N, 6.37; O, 7.27; Cl, 24.18. […]
36.9 g (0.1 mol) of sodium 4-[bis(2-chloroethyl)amino]-N-acetyl-L-phenylalanine was dissolved in 100 ml of acetonitrile. […] Calculated % C, 47.83; H, 6.50; Br, 15.15; N, 7.97; O, 9.10; Cl, 13.45. […]

Row | Compound | Solubility in water
1 | Br.CCN(CC)CCOC(=O)CCCc1ccc(N(CCCl)CCCl)cc1 [N,N-diethylaminoethyl 4-[bis(2-chloroethyl)amino]benzenebutyrate.HBr] | 300 mg/mL
2 | CCN(CC)CCOC(=O)CCCc1ccc(N(CCCl)CCCl)cc1.Cl [N,N-diethylaminoethyl 4-[bis(2-chloroethyl)amino]benzenebutyrate.HCl] | 300 mg/mL
